{"source": "PubChem BioAssay AID1458", "about": "(National Center for Advancing Translational Sciences (NCATS), 2008)", "note": "Screen size: about 210,000 compounds; about 5,900 (2.8%) were called active. Inconclusive means that the source gave no clear call. Such entries were picked first, then a sample of the others. Calls follow the shape of the dose curve; as a rule, active = well fitted activation curve with a large enough effect; inconclusive = small, poorly fitted or top-dose-only effect; inactive = no such curve, though single readings can be large or run the other way. A potency beside an inconclusive call is a rough fit, not a confirmed value. Potency is read from the fitted curve at half-maximal effect; tags tell the direction and shape of the fitted curve.", "data": [{"experiment": "qHTS Assay for Enhancers of SMN2 Splice Variant Expression; also: nearly all actives have a fitted effect of over 55% in size; as to activity change, positive = activation: % of control where 0% means no effect", "conditions": "HEK293 SMN2-luciferase splicing reporter, luminescence, 30-36 h; activity change, positive = activation: at 46.1 µM (top of the series)", "how_it_was_run": "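qHTS luciferase splicing reporter: luminescence rises when SMN2 exon 7 is included in transfected HEK293 cells. Compound exposure lasted 30-36 h at 37C, with 4.5 mM final sodium butyrate as control, followed by a ONE-Glo read.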", "values": [{"smiles": "CCCNC(=O)CSc1nnc(C)s1", "activity change, positive = activation": "inactive: -16%"}, {"smiles": "O=C1Nc2ccc(NS(=O)(=O)c3cccs3)c3cccc1c23", "Potency": "inconclusive: 10 µM [activator, partial curve, poor fit]"}, {"smiles": "O=C(c1ccco1)N1CCN(Cc2ccc(Cl)cc2)CC1", "activity change, positive = activation": "inactive: 3.53%"}, {"smiles": "Cc1cc(C)c(N2CCN(S(=O)(=O)N3CCCCCC3)CC2)c(C)c1", "Potency": "inconclusive: 0.01 µM [activator, full curve, poor fit]"}, {"smiles": "Cc1cc2cc3c(cc2nc1SCC(=O)Nc1nc(C)c(C)s1)OCO3", "Potency": "inconclusive: 5.01 µM [activator, single point]"}, {"smiles": "O=C(Nc1ccccn1)c1ccc2nc(-c3ccccc3)c(-c3ccccc3)nc2c1", "Potency": "inconclusive: 31.6 µM [activator, single point]"}, {"smiles": "O=C(OC1CCOC1=O)c1cccc(S(=O)(=O)Nc2ccc(F)cc2)c1", "note": "(centres undefined)", "Potency": "inconclusive: 1 µM [activator, full curve]"}, {"smiles": "Cc1ccc(OC(=O)c2ccc(S(=O)(=O)N(C)C)cc2)c(-n2nc3ccccc3n2)c1", "Potency": "inconclusive: 35.5 µM [activator, single point]"}, {"smiles": "Cc1cc(C(=O)COC(=O)c2cccn2C)c(C)n1Cc1ccco1", "Potency": "inconclusive: 0.891 µM [activator, full curve]"}, {"smiles": "Cc1ccc(/C=N/NC(=O)c2ccco2)s1", "Potency": "inconclusive: 14.1 µM [activator, single point]"}, {"smiles": "O=C(CSc1nc2c(sc3ccccc32)c(=O)n1-c1ccccc1)NCc1ccco1", "Potency": "inconclusive: 15.8 µM [activator, single point]"}, {"smiles": "Cc1ccc(Cn2ccnc2C(=O)Nc2ccccc2)cc1", "Potency": "active: 15.8 µM"}, {"smiles": "C[C@@H]1CCC2[C@](C)(CO)[C@@H](O)CC[C@]2(C)[C@]12CCC(CO)(CCO)O2", "note": "(some centres undefined)", "activity change, positive = activation": "inactive: 13.9%"}, {"smiles": "Cc1cc2nc(-c3ccc(SCC(=O)Nc4nccs4)nc3)[nH]c2cc1C", "Potency": "inconclusive: 1.78 µM [activator, partial curve]"}, {"smiles": "Cc1cccc(N/C(N)=N/c2nc(C(F)(F)F)cc(=O)[nH]2)c1C", "activity change, positive = activation": "inactive: -3.94%"}, {"smiles": "CCOc1ccccc1Nc1nc2ccccc2[nH]1", "Potency": "inconclusive: 35.5 µM [activator, single point]"}, {"smiles": "COc1cc(C(=O)NCc2nnc(SCC(=O)N3CCC(C)CC3)o2)cc(OC)c1OC", "activity change, positive = activation": "inactive: 5.51%"}, {"smiles": "CCCOc1ccc(C(=O)Nc2cccc(-c3nc4ccccc4[nH]3)c2)cc1", "Potency": "inconclusive: 20 µM [activator, single point]"}, {"smiles": "CCOC(=O)c1ccc2nc(C)c3c(c2c1)OC(C)C3", "note": "(centres undefined)", "activity change, positive = activation": "inactive: -11.5%"}, {"smiles": "COc1ccccc1NC(=O)CSc1nnc(-c2ccccc2)o1", "Potency": "active: 14.1 µM"}, {"smiles": "Clc1ccc2c(c1)C1OCCC1C(c1ccco1)N2", "note": "(centres undefined)", "Potency": "active: 12.6 µM"}, {"smiles": "Nc1ccccc1SCc1cn2cccnc2n1", "Potency": "inconclusive: 14.1 µM [activator, single point]"}, {"smiles": "CCN(CC)c1ccc(/C=N/NC(=S)NCc2ccccc2)c(O)c1", "activity change, positive = activation": "inactive: -75.1%"}, {"smiles": "COc1ccc(NC(=O)c2ccco2)cc1N", "Potency": "inconclusive: 5.01 µM [activator, partial curve]"}, {"smiles": "CCC(=O)Nc1ccccc1N1CCN(S(C)(=O)=O)CC1", "Potency": "inconclusive: 0.112 µM [activator, full curve, poor fit]"}, {"smiles": "CC(C)C(=O)c1cc2c(cc1NC(=O)c1ccccc1)OCCO2", "activity change, positive = activation": "inactive: -34.3%"}, {"smiles": "CC(=O)NC1=NC(=O)/C(=C/N2CCOCC2)S1", "Potency": "inconclusive: 35.5 µM [activator, partial curve, poor fit]"}, {"smiles": "COc1ccc(-c2cn3cccnc3n2)cc1F", "Potency": "active: 15.8 µM"}, {"smiles": "Cc1ccc(S(=O)(=O)Nc2nc(C)c(NC(=O)Nc3ccc(Cl)cc3Cl)s2)cc1", "activity change, positive = activation": "inactive: -2.4%"}, {"smiles": "CCN(Cc1ccccc1)C(=O)c1ccc(CNS(=O)(=O)c2ccc(C)cc2)cc1", "activity change, positive = activation": "inactive: -40.5%"}, {"smiles": "COc1cccc(/C=C/C(=O)Nc2cccc(C(C)=O)c2)c1OC", "Potency": "active: 17.8 µM"}, {"smiles": "O=C(CSc1ccccn1)Nc1ccc(Cl)c([N+](=O)[O-])c1", "activity change, positive = activation": "inactive: -1.43%"}, {"smiles": "CC(C)=CCC/C(C)=C/C=N/NC(=O)c1cccc([N+](=O)[O-])c1", "activity change, positive = activation": "inactive: -3.89%"}, {"smiles": "CCC(C)NC(=O)CCC(=O)Nc1ccc2nc(N3CCOCC3)cc(C)c2c1", "note": "(centres undefined)", "Potency": "inconclusive: 4.47 µM [activator, partial curve, poor fit]"}, {"smiles": "CCCCCCC(=O)Oc1ccc(N2C(=O)CCC2=O)cc1", "Potency": "inconclusive: 35.5 µM [activator, single point]"}, {"smiles": "COc1ccccc1/C=C/C(=O)N1CCOCC1", "activity change, positive = activation": "inactive: -15.6%"}, {"smiles": "COc1ccc(-c2cc(C(=O)N3CCN(c4ncccn4)CC3)c3ccccc3n2)c(OC)c1", "activity change, positive = activation": "inactive: -4.63%"}, {"smiles": "O=C(Nc1ccc2oc(-c3cccc4ccccc34)nc2c1)c1ncn[nH]1", "Potency": "inconclusive: 12.6 µM [activator, partial curve]"}, {"smiles": "COc1ccc(OC)c(C2CC(=O)N3CN(c4ccccc4F)CSC3=C2C#N)c1", "note": "(centres undefined)", "Potency": "inconclusive: 12.6 µM [activator, single point]"}, {"smiles": "Cc1cccc(-n2ncc3c(N4CC(C)CC(C)C4)ncnc32)c1", "note": "(centres undefined)", "Potency": "inconclusive: 31.6 µM [activator, single point]"}, {"smiles": "c1ccc(-c2nc(NCC3CCCO3)c3ccccc3n2)nc1", "note": "(centres undefined)", "activity change, positive = activation": "inactive: -56.2%"}, {"smiles": "CCCCOc1c(Cl)cc(C(=O)N(Cc2ccc(C)o2)C2CCS(=O)(=O)C2)cc1Cl", "note": "(centres undefined)", "activity change, positive = activation": "inactive: -32.1%"}, {"smiles": "CCCCCCC1/C(=N/O)CCC1C(=O)OC", "note": "(centres undefined)", "Potency": "inconclusive: 0.398 µM [activator, full curve]"}, {"smiles": "Cc1nn(C(=O)c2cc3sccc3[nH]2)c(C)c1C", "Potency": "inconclusive: 15.8 µM [activator, single point]"}, {"smiles": "Cc1ccc(Cn2ccc(NC(=O)c3noc4c3CCCC4)n2)cc1", "activity change, positive = activation": "inactive: 2.69%"}, {"smiles": "COc1ccc(/C=C(\\NC(=O)c2cccs2)C(=O)Nc2ccccc2C)cc1OC", "Potency": "inconclusive: 0.708 µM [activator, full curve, poor fit]"}, {"smiles": "CCOc1ccccc1N(C)C(=O)Cn1cnc2sc(C)c(S(=O)(=O)N3CCC(C)CC3)c2c1=O", "activity change, positive = activation": "inactive: 6.19%"}, {"smiles": "Cc1ccc(Cl)cc1N1CCN(C(=O)CSc2nnc3n2C(C)(C)Cc2ccccc2-3)CC1", "activity change, positive = activation": "inactive: -128%"}, {"smiles": "Cc1cccnc1NC(=O)/C=C/c1ccc2c(c1)OCO2", "Potency": "active: 15.8 µM"}, {"smiles": "Cc1nc(NC(=O)c2ccc(Br)o2)sc1C", "Potency": "inconclusive: 25.1 µM [activator, single point]"}, {"smiles": "CCOC(=O)C1=C(CC)NC2=C(C(=O)CCC2)C1c1ccc(OC)c(OC)c1", "note": "(centres undefined)", "Potency": "inconclusive: 35.5 µM [activator, partial curve, poor fit]"}, {"smiles": "N#Cc1cccc(CS(=O)(=O)c2nnnn2C2CCCCC2)c1", "activity change, positive = activation": "inactive: 21.7%"}, {"smiles": "CCOCCOC(=O)c1ccc(NC(=O)/C=C/c2ccc(OC)c(OC)c2)cc1", "activity change, positive = activation": "inactive: -9.88%"}, {"smiles": "CC(=O)C1=C(C)OC(N)=C(C#N)C1c1ccco1", "note": "(centres undefined)", "Potency": "inconclusive: 28.2 µM [activator, partial curve]"}, {"smiles": "COc1cccc(C(=O)O/N=C(\\N)c2ccc([N+](=O)[O-])cc2)c1OC", "Potency": "inconclusive: 35.5 µM [activator, single point]"}, {"smiles": "Cc1ccc(-c2c(C)sc(=NC(=O)c3ccco3)n2C)cc1", "Potency": "inconclusive: 20 µM [activator, partial curve, poor fit]"}, {"smiles": "COCc1cc(C)n(CC(=O)Nc2ccc(NC(C)=O)cc2)c(=O)c1C#N", "activity change, positive = activation": "inactive: 6.77%"}, {"smiles": "COC(=O)C(C)Sc1ncnc2c1nnn2-c1ccc(F)cc1", "note": "(centres undefined)", "activity change, positive = activation": "inactive: -2.15%"}, {"smiles": "CCC(CCC(C)C1CCC2C3CC=C4CC(OC(C)=O)CC[C@@]4(C)C3CC[C@@]12C)C(C)C", "note": "(some centres undefined)", "activity change, positive = activation": "inactive: -3.98%"}, {"smiles": "CC1CCCCC1NC(=O)CN1C(=O)NC(Cc2ccccc2)(Cc2ccccc2)C1=O", "note": "(centres undefined)", "Potency": "inconclusive: 6.31 µM [activator, partial curve]"}, {"smiles": "Cn1c(CN2CCC(C(N)=O)CC2)c(C#N)c2ccccc21", "Potency": "inconclusive: 5.01 µM [activator, single point]"}, {"smiles": "COc1ccccc1N1CCN(S(=O)(=O)c2ccccc2F)CC1", "Potency": "inconclusive: 0.1 µM [activator, full curve, poor fit]"}, {"smiles": "O=C(/C=C/c1ccc(F)cc1)NCc1ccco1", "Potency": "inconclusive: 0.158 µM [activator, full curve, poor fit]"}, {"smiles": "[O-][n+]1c2c(nc3c1-c1ccccc1C3O)CCCC2", "note": "(centres undefined)", "Potency": "inconclusive: 15.8 µM [activator, single point]"}, {"smiles": "O=C(O)[C@@H]1[C@@H](C(=O)Nc2ccccc2)[C@@H]2C=C[C@@H]1O2", "activity change, positive = activation": "inactive: -9.9% [at 9.22 µM]"}, {"smiles": "Cc1noc(C)c1COc1ccc(C(=O)OCC(=O)Nc2c(C)n(C)n(-c3ccccc3)c2=O)cc1", "activity change, positive = activation": "inactive: 8.72%"}, {"smiles": "CCOC(=O)N1N=C(c2ccccc2)CC1(O)C(F)(F)F", "note": "(centres undefined)", "Potency": "inconclusive: 15.8 µM [activator, partial curve, poor fit]"}, {"smiles": "O=C1CC(SCc2nc3ccccc3[nH]2)C(=O)N1c1ccc(F)cc1", "note": "(centres undefined)", "Potency": "inconclusive: 7.08 µM [activator, partial curve, poor fit]"}, {"smiles": "Cc1cccc(C(=O)O/N=C(\\N)Cc2ccc([N+](=O)[O-])cc2)c1", "Potency": "inconclusive: 0.708 µM [activator, single point]"}, {"smiles": "CCN(CC)S(=O)(=O)c1ccc2nc(NC(=O)c3cccs3)sc2c1", "Potency": "inconclusive: 5.62 µM [activator, full curve, poor fit]"}, {"smiles": "O=C(NCCCn1ccnc1)c1csc2ccccc12", "Potency": "inconclusive: 1 µM [activator, full curve]"}, {"smiles": "COc1cccc(NC(=O)c2nnn(CCc3ccccc3)c2N)c1", "Potency": "inconclusive: 31.6 µM [activator, single point]"}, {"smiles": "S=C(NCc1ccco1)N1CCN(c2ccccn2)CC1", "Potency": "inconclusive: 6.31 µM [activator, single point]"}, {"smiles": "COc1ccc(C2CC2/C(=N/OC(=O)c2cccs2)c2ccccc2)cc1", "note": "(centres undefined)", "Potency": "inconclusive: 11.2 µM [activator, single point]"}]}]}
